For 32 sequences, binding signal (RPM ratio (pull-down/input)) results are on record in PMC12820563.

The other results are listed elsewhere or left out. The list includes weakly bound sequences.

The target in the test is T1, MBP-FoxP3dN (UniProt Q99JB6).
T1 sequence: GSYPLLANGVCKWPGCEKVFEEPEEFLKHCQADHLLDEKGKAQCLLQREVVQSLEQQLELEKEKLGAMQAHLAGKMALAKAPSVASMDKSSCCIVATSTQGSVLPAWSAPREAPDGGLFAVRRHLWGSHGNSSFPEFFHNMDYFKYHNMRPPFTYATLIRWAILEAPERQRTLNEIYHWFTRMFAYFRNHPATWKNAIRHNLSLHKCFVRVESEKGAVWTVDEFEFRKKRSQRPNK
In words: PD-seq (MBP pull-down with sequencing). The following applies: 20 mM Tris-HCl pH 7.5, 100 mM NaCl, 1.5 mM MgCl2, 0.4 uM protein, 0.1 uM dsDNA library, 30 min, room temperature, amylose pull-down; high values mean tight binding; double strand, one strand shown.
Turning to “GATGATTGTTCTCCCAGCTGATGAATTAACCGTTTCGAGTAAACAAATTTTCCTAATCTTTCTGTTCAAGCGCCATCTAC”, the binding signal (RPM ratio (pull-down/input)) is 0.413. Next, “GATGATTGTTCTCCCAGCTGATGAATTGAGAAACTCGAGTAAACAAATTTTCCTAATCTTTCTGTTCAAGCGCCATCTAC”: 0.558. As for “GATGATTGTTCTCCCAGCTGATGAATTTGGCCATTCGAGTAAACAAATTTTCCTAATCTTTCTGTTCAAGCGCCATCTAC”, the binding signal (RPM ratio (pull-down/input)) was found to be 4.06. Next, “GATGATTGTTCTCCCAGCTGATGAATTTTCCAAATCGAGTAAACAAATTTTCCTAATCTTTCTGTTCAAGCGCCATCTAC”: 0.241; “GATGATTGTTCTCCCAGCTGATGAATTAGGGGTTTCGAGTAAACAAATTTTCCTAATCTTTCTGTTCAAGCGCCATCTAC”: 0.738. “GATGATTGTTCTCCCAGCTGATGAATTATGGCATTCGAGTAAACAAATTTTCCTAATCTTTCTGTTCAAGCGCCATCTAC”: the binding signal (RPM ratio (pull-down/input)) worked out at 5.55.

In the case of “GATGATTGTTCTCCCAGCTGATGAATTGGCATTATCGAGTAAACAAATTTTCCTAATCTTTCTGTTCAAGCGCCATCTAC”, the binding signal (RPM ratio (pull-down/input)) worked out at 2.51. Next, “GATGATTGTTCTCCCAGCTGATGAATTGGTCTAGTCGAGTAAACAAATTTTCCTAATCTTTCTGTTCAAGCGCCATCTAC”: 0.279; “GATGATTGTTCTCCCAGCTGATGAATTGTGACAATCGAGTAAACAAATTTTCCTAATCTTTCTGTTCAAGCGCCATCTAC”: 1.22; “GATGATTGTTCTCCCAGCTGATGAATTTGCAACCTCGAGTAAACAAATTTTCCTAATCTTTCTGTTCAAGCGCCATCTAC”: 3.64. Next, “GATGATTGTTCTCCCAGCTGATGAATTTATGTCATCGAGTAAACAAATTTTCCTAATCTTTCTGTTCAAGCGCCATCTAC”: 2.1.

As to “GATGATTGTTCTCCCAGCTGATGAATTTTTCCTCTCGAGTAAACAAATTTTCCTAATCTTTCTGTTCAAGCGCCATCTAC”, the binding signal (RPM ratio (pull-down/input)) is 0.243.

For “GATGATTGTTCTCCCAGCTGATGAATTTGCCCGGTCGAGTAAACAAATTTTCCTAATCTTTCTGTTCAAGCGCCATCTAC”, the binding signal (RPM ratio (pull-down/input)) was 0.304.

“GATGATTGTTCTCCCAGCTGATGAATTCATTATATCGAGTAAACAAATTTTCCTAATCTTTCTGTTCAAGCGCCATCTAC”: the binding signal (RPM ratio (pull-down/input)) was 0.581. On to “GATGATTGTTCTCCCAGCTGATGAATTGCATTGCTCGAGTAAACAAATTTTCCTAATCTTTCTGTTCAAGCGCCATCTAC”, for which the binding signal (RPM ratio (pull-down/input)) stood at 2.55.

As for “GATGATTGTTCTCCCAGCTGATGAATTAGTTTCCTCGAGTAAACAAATTTTCCTAATCTTTCTGTTCAAGCGCCATCTAC”, the binding signal (RPM ratio (pull-down/input)) is 2.99. For the sequence “GATGATTGTTCTCCCAGCTGATGAATTTCATGAATCGAGTAAACAAATTTTCCTAATCTTTCTGTTCAAGCGCCATCTAC”, the binding signal (RPM ratio (pull-down/input)) is 0.25.

Turning to “GATGATTGTTCTCCCAGCTGATGAATTGGCCCGCTCGAGTAAACAAATTTTCCTAATCTTTCTGTTCAAGCGCCATCTAC”, the binding signal (RPM ratio (pull-down/input)) amounted to 0.249. In the case of “GATGATTGTTCTCCCAGCTGATGAATTGTCCAGTTCGAGTAAACAAATTTTCCTAATCTTTCTGTTCAAGCGCCATCTAC”, the binding signal (RPM ratio (pull-down/input)) worked out at 0.241.

As for “GATGATTGTTCTCCCAGCTGATGAATTGCCCAGCTCGAGTAAACAAATTTTCCTAATCTTTCTGTTCAAGCGCCATCTAC”, the binding signal (RPM ratio (pull-down/input)) was 0.364. With “GATGATTGTTCTCCCAGCTGATGAATTACGCATCTCGAGTAAACAAATTTTCCTAATCTTTCTGTTCAAGCGCCATCTAC”, the binding signal (RPM ratio (pull-down/input)) worked out at 7.33. Next, “GATGATTGTTCTCCCAGCTGATGAATTTATAAGTTCGAGTAAACAAATTTTCCTAATCTTTCTGTTCAAGCGCCATCTAC”: 0.627; “GATGATTGTTCTCCCAGCTGATGAATTTGGCCGCTCGAGTAAACAAATTTTCCTAATCTTTCTGTTCAAGCGCCATCTAC”: 1.44. Take “GATGATTGTTCTCCCAGCTGATGAATTTGGTGTTTCGAGTAAACAAATTTTCCTAATCTTTCTGTTCAAGCGCCATCTAC”: the binding signal (RPM ratio (pull-down/input)) came out at 3.59. Take “GATGATTGTTCTCCCAGCTGATGAATTCCCTTCGTCGAGTAAACAAATTTTCCTAATCTTTCTGTTCAAGCGCCATCTAC”: the binding signal (RPM ratio (pull-down/input)) was 0.292. In the case of “GATGATTGTTCTCCCAGCTGATGAATTCGTCGTATCGAGTAAACAAATTTTCCTAATCTTTCTGTTCAAGCGCCATCTAC”, the binding signal (RPM ratio (pull-down/input)) worked out at 1.17. Next, “GATGATTGTTCTCCCAGCTGATGAATTCAGATCCTCGAGTAAACAAATTTTCCTAATCTTTCTGTTCAAGCGCCATCTAC”: 0.332; “GATGATTGTTCTCCCAGCTGATGAATTGCCTCCGTCGAGTAAACAAATTTTCCTAATCTTTCTGTTCAAGCGCCATCTAC”: 0.847. Turning to “GATGATTGTTCTCCCAGCTGATGAATTGTCGCAATCGAGTAAACAAATTTTCCTAATCTTTCTGTTCAAGCGCCATCTAC”, the binding signal (RPM ratio (pull-down/input)) came to 2.93. To “GATGATTGTTCTCCCAGCTGATGAATTTCACATATCGAGTAAACAAATTTTCCTAATCTTTCTGTTCAAGCGCCATCTAC” belongs 0.436; to “GATGATTGTTCTCCCAGCTGATGAATTAGAAGTATCGAGTAAACAAATTTTCCTAATCTTTCTGTTCAAGCGCCATCTAC”, 0.417; to “GATGATTGTTCTCCCAGCTGATGAATTCTAACCCTCGAGTAAACAAATTTTCCTAATCTTTCTGTTCAAGCGCCATCTAC”, 0.278.
